Measurements from ChEMBL document CHEMBL1961873, “Compounds: GSK PKIS; Assays: Nanosyn kinase panel” (2012).
For some of these results: Most of the strong results are listed elsewhere, so they are rarer here than in the full data. Only a part is listed here, and it is no random draw.

Assays:
[1] = biological target: T1, Inhibitor of nuclear factor kappa-B kinase subunit epsilon (Homo sapiens) (UniProt Q14164); conditions: at 1 µM;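 further: reported values are averaged percent inhibition figures against human IKKε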
T1 sequence (whole entry): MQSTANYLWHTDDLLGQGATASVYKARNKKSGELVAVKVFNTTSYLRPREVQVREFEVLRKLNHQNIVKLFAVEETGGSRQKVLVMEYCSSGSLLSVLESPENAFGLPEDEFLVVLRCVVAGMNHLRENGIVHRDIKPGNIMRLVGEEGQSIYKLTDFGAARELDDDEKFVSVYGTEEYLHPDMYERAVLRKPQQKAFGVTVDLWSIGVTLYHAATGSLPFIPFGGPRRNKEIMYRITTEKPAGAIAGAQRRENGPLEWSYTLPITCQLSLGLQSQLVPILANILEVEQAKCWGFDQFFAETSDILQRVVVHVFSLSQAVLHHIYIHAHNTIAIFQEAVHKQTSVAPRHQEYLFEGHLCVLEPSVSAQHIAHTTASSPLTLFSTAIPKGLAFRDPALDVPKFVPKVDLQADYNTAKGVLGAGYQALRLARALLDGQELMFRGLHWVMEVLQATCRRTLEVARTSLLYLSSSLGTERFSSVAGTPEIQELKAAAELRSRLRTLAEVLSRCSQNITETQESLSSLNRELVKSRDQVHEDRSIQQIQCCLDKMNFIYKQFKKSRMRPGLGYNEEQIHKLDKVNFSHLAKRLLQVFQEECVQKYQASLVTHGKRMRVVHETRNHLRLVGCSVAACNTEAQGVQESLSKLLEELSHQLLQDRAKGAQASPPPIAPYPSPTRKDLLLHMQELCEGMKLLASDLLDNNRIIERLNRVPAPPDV

[2] = biological target: T2, Serine/threonine-protein kinase Nek1 (Homo sapiens) (UniProt Q96PY6); conditions: at 0.1 µM
T2 sequence (whole entry): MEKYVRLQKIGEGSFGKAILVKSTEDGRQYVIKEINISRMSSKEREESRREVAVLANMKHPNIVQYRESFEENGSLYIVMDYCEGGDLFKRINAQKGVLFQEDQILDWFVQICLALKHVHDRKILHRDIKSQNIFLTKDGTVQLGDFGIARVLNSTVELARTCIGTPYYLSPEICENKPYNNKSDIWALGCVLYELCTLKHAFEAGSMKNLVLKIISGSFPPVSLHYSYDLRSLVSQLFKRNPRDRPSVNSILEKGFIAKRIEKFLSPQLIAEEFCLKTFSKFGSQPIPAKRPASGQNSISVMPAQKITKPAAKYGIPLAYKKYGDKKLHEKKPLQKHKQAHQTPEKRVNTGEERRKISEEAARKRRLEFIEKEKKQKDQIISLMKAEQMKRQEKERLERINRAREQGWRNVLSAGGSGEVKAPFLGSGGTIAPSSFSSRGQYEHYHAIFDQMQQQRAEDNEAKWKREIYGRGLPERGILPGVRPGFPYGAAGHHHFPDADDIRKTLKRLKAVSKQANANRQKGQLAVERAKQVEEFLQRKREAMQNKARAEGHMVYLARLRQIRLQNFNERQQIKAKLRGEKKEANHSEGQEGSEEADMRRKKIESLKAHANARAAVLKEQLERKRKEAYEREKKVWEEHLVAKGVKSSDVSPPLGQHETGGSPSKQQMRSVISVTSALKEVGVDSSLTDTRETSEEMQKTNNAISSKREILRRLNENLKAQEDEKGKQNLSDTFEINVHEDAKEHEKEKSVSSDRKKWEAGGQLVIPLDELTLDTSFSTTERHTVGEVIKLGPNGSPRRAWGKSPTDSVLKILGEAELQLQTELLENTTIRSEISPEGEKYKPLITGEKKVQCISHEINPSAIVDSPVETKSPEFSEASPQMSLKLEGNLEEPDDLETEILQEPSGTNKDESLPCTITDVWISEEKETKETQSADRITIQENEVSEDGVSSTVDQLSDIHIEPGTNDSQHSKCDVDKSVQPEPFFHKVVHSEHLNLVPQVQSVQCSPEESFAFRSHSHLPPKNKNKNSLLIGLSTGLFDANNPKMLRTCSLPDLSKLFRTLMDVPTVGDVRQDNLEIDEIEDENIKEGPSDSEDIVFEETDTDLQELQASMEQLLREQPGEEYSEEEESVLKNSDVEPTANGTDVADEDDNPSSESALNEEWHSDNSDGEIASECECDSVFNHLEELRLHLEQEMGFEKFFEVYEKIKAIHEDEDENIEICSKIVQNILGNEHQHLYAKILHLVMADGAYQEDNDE

[3] = biological target: T2, Serine/threonine-protein kinase Nek1 (Homo sapiens); conditions: at 1 µM
[4] = biological target: T3, Serine/threonine-protein kinase Nek2 (Homo sapiens) (UniProt P51955); conditions: at 0.1 µM
T3 sequence (whole entry): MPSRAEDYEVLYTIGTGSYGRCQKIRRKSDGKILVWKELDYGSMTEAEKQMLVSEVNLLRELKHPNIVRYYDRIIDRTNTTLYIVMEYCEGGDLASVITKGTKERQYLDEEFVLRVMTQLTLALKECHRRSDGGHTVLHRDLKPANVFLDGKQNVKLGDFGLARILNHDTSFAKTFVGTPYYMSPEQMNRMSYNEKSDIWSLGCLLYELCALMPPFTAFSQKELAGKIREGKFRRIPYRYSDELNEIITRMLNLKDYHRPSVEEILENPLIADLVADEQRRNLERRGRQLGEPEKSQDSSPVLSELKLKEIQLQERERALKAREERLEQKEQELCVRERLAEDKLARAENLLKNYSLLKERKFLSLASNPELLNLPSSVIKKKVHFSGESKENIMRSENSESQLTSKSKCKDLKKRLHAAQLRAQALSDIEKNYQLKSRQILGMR

[5] = biological target: T3, Serine/threonine-protein kinase Nek2 (Homo sapiens); conditions: at 1 µM
[6] = biological target: T4, Serine/threonine-protein kinase Nek6 (Homo sapiens) (UniProt Q9HC98); conditions: at 0.1 µM
T4 sequence (whole entry): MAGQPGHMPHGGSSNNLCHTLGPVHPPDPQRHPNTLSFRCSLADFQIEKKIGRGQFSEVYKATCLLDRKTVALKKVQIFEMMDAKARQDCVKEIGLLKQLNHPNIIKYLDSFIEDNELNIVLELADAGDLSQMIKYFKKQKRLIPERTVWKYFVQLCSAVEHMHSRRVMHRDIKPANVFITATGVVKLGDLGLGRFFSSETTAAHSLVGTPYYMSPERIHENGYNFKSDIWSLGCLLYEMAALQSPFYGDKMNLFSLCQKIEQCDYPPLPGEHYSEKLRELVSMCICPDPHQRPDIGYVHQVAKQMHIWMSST

[7] = biological target: T4, Serine/threonine-protein kinase Nek6 (Homo sapiens); conditions: at 1 µM
[8] = biological target: Serine/threonine-protein kinase Nek7 (Homo sapiens) (UniProt Q8TDX7); conditions: at 0.1 µM
[9] = biological target: Serine/threonine-protein kinase Nek7 (Homo sapiens) (UniProt Q8TDX7); conditions: at 1 µM
[10] = biological target: T5, Serine/threonine-protein kinase Nek9 (Homo sapiens) (UniProt Q8TD19); conditions: at 0.1 µM;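 further: reported value is the mean percent inhibition of NEK9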
T5 sequence (whole entry): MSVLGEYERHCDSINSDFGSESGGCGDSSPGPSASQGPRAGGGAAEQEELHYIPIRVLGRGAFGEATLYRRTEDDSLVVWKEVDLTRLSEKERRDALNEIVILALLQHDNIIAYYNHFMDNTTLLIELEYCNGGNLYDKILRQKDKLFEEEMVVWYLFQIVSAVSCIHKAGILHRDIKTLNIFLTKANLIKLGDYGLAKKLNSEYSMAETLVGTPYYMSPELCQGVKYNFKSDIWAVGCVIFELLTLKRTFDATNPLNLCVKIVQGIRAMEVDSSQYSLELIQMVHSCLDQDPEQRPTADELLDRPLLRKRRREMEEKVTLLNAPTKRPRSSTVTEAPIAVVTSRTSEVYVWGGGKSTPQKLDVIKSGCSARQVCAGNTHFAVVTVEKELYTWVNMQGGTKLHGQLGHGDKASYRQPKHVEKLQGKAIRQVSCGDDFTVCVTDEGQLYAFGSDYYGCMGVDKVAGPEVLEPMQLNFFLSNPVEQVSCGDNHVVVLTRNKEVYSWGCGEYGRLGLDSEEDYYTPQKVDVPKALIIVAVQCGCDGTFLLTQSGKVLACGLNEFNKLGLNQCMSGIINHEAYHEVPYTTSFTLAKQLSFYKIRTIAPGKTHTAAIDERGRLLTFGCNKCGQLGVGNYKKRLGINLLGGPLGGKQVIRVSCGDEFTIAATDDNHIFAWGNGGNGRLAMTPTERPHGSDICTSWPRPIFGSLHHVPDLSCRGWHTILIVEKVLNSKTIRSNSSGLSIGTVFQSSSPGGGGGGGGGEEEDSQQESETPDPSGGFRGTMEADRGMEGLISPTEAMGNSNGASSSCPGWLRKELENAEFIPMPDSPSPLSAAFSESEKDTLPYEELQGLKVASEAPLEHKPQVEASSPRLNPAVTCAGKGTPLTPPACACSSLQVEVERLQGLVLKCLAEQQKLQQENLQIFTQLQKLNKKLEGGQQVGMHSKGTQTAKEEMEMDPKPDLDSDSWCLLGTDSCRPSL

UniProt Q8TDX7, sequence (Q8TDX7 whole entry, looked up): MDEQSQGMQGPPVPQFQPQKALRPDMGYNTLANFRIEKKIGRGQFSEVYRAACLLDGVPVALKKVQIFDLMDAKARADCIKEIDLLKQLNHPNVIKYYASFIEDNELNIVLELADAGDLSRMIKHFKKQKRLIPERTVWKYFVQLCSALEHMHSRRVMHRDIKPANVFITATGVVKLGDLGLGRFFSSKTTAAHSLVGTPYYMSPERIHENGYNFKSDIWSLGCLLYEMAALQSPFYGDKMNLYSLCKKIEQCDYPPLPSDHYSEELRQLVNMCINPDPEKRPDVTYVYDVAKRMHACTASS

COc1ccccc1C1=C(Nc2ccccc2)C(=O)NC1=O
inhibition [1]: 7.53%
inhibition [2]: 2.8%
inhibition [3]: 2.4%
inhibition [4]: 3.27%
inhibition [5]: 4.08%
inhibition [6]: 1.23%
inhibition [7]: 2.63%
inhibition [8]: 3.48%
inhibition [9]: 4.14%
inhibition [10]: 9.22%
